Laboratory results taken from the supplement of paper PMC12230231.
± gives the standard deviation of the averaged measurements. Restriction of a single-cycle SIVsab GFP reporter by TRIM5α v1-loop variants in CRFK cells. Human variants: read share among cells still uninfected after two challenges over input, higher = gained restriction. Rhesus variants: share among infected cells over input, higher = lost restriction. Reporter dose not given per row. No active / inactive call per row; the paper calls a change when both replicates lie above its controls (mean + 2 SD of stop or wild-type variants, or the top frameshift score). Residues outside the varied loop are taken from Swiss-Prot. The paper reads the human single-substitution scores as noise; they and the rhesus combinations repeat poorly (rank correlation 0.3 to 0.4), indel scores repeat only for the top variants, rhesus substitutions well (0.9).

These sequences were tested on SIVsab (simian immunodeficiency virus of sabaeus monkeys), single-cycle GFP reporter, in CRFK cells (assay: enrichment among uninfected cells over input (fold); higher = stronger restriction). Conditions: library: human / rhesus combinations.
Method: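 Pools of CRFK cells expressing variants of the TRIM5α v1 loop were challenged with the single-cycle reporter, sorted by GFP and sequenced; mean of two replicates.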

Sequence | enrichment
MASGILVNVKEEVTCPICLELLTQPLSLDCGHSFCQACLTANHKKSMLDKGESSCPVCRISYQPENIRPNRHVANIVEKLREVKLSPEGQKVDHCARHGEKLLLFCQEDGKVICWLCERSQEHRGHHTFLTEEVAREYQVKLQAALEMLRQKQQEAEELEADIREEKASWKTQIQYDKTNVLADFEQLRDILDWEESNELQNLEKEEEDILKSLTNSETEMVQQTQSLRELISDLEHRLQGSVMELLQGVDGVIKRTENVTLKKPETFPKNQRRVFRAPDLKGMLEVFRELTDVRRYWVDVTVAPNNISCAVISEDKRQVSSPKPQIIYQARGTRYTFQTLVNFNYCTGILGSQSITSGKHYWEVDVSKKTAWILGVCAGFQPDAMCNIEKNENYQPKYGYWVIGLEEGVKCSAFQDSSFHTPSVPFIVPLSVIICPDRVGVFLDYEACTVSFFNITNHGFLIYKFSHCSFSQPVFPYLNPRKCGVPMTLCSPSS [human TRIM5α, 330-340 = QARGTRYTFQTLV] | 0.203 ± 0.01
MASGILVNVKEEVTCPICLELLTQPLSLDCGHSFCQACLTANHKKSMLDKGESSCPVCRISYQPENIRPNRHVANIVEKLREVKLSPEGQKVDHCARHGEKLLLFCQEDGKVICWLCERSQEHRGHHTFLTEEVAREYQVKLQAALEMLRQKQQEAEELEADIREEKASWKTQIQYDKTNVLADFEQLRDILDWEESNELQNLEKEEEDILKSLTNSETEMVQQTQSLRELISDLEHRLQGSVMELLQGVDGVIKRTENVTLKKPETFPKNQRRVFRAPDLKGMLEVFRELTDVRRYWVDVTVAPNNISCAVISEDKRQVSSPKPQIIYGARGTLFTFPTLTNFNYCTGILGSQSITSGKHYWEVDVSKKTAWILGVCAGFQPDAMCNIEKNENYQPKYGYWVIGLEEGVKCSAFQDSSFHTPSVPFIVPLSVIICPDRVGVFLDYEACTVSFFNITNHGFLIYKFSHCSFSQPVFPYLNPRKCGVPMTLCSPSS [human TRIM5α, 330-340 = GARGTLFTFPTLT] | 0.0556 ± 0.078
MASGILVNVKEEVTCPICLELLTQPLSLDCGHSFCQACLTANHKKSMLDKGESSCPVCRISYQPENIRPNRHVANIVEKLREVKLSPEGQKVDHCARHGEKLLLFCQEDGKVICWLCERSQEHRGHHTFLTEEVAREYQVKLQAALEMLRQKQQEAEELEADIREEKASWKTQIQYDKTNVLADFEQLRDILDWEESNELQNLEKEEEDILKSLTNSETEMVQQTQSLRELISDLEHRLQGSVMELLQGVDGVIKRTENVTLKKPETFPKNQRRVFRAPDLKGMLEVFRELTDVRRYWVDVTVAPNNISCAVISEDKRQVSSPKPQIIYQARGTRYTFQTLTNFNYCTGILGSQSITSGKHYWEVDVSKKTAWILGVCAGFQPDAMCNIEKNENYQPKYGYWVIGLEEGVKCSAFQDSSFHTPSVPFIVPLSVIICPDRVGVFLDYEACTVSFFNITNHGFLIYKFSHCSFSQPVFPYLNPRKCGVPMTLCSPSS [human TRIM5α, 330-340 = QARGTRYTFQTLT] | 0.205 ± 0.12
MASGILVNVKEEVTCPICLELLTQPLSLDCGHSFCQACLTANHKKSMLDKGESSCPVCRISYQPENIRPNRHVANIVEKLREVKLSPEGQKVDHCARHGEKLLLFCQEDGKVICWLCERSQEHRGHHTFLTEEVAREYQVKLQAALEMLRQKQQEAEELEADIREEKASWKTQIQYDKTNVLADFEQLRDILDWEESNELQNLEKEEEDILKSLTNSETEMVQQTQSLRELISDLEHRLQGSVMELLQGVDGVIKRTENVTLKKPETFPKNQRRVFRAPDLKGMLEVFRELTDVRRYWVDVTVAPNNISCAVISEDKRQVSSPKPQIIYQARGTRFTFQTFTNFNYCTGILGSQSITSGKHYWEVDVSKKTAWILGVCAGFQPDAMCNIEKNENYQPKYGYWVIGLEEGVKCSAFQDSSFHTPSVPFIVPLSVIICPDRVGVFLDYEACTVSFFNITNHGFLIYKFSHCSFSQPVFPYLNPRKCGVPMTLCSPSS [human TRIM5α, 330-340 = QARGTRFTFQTFT] | 1.84 ± 0.28
MASGILVNVKEEVTCPICLELLTQPLSLDCGHSFCQACLTANHKKSMLDKGESSCPVCRISYQPENIRPNRHVANIVEKLREVKLSPEGQKVDHCARHGEKLLLFCQEDGKVICWLCERSQEHRGHHTFLTEEVAREYQVKLQAALEMLRQKQQEAEELEADIREEKASWKTQIQYDKTNVLADFEQLRDILDWEESNELQNLEKEEEDILKSLTNSETEMVQQTQSLRELISDLEHRLQGSVMELLQGVDGVIKRTENVTLKKPETFPKNQRRVFRAPDLKGMLEVFRELTDVRRYWVDVTVAPNNISCAVISEDKRQVSSPKPQIIYGARGTLFTFPTFTNFNYCTGILGSQSITSGKHYWEVDVSKKTAWILGVCAGFQPDAMCNIEKNENYQPKYGYWVIGLEEGVKCSAFQDSSFHTPSVPFIVPLSVIICPDRVGVFLDYEACTVSFFNITNHGFLIYKFSHCSFSQPVFPYLNPRKCGVPMTLCSPSS [human TRIM5α, 330-340 = GARGTLFTFPTFT] | 0.0963 ± 0.078

Same assay, conditions: library: insertions and deletions

Sequence | enrichment
MASGILVNVKEEVTCPICLELLTQPLSLDCGHSFCQACLTANHKKSMLDKGESSCPVCRISYQPENIRPNRHVANIVEKLREVKLSPEGQKVDHCARHGEKLLLFCQEDGKVICWLCERSQEHRGHHTFLTEEVAREYQVKLQAALEMLRQKQQEAEELEADIREEKASWKTQIQYDKTNVLADFEQLRDILDWEESNELQNLEKEEEDILKSLTNSETEMVQQTQSLRELISDLEHRLQGSVMELLQGVDGVIKRTENVTLKKPETFPKNQRRVFRAPDLKGMLEVFRELTDVRRYWVDVTVAPNNISCAVISEDKRQVSSPKPQIRYQTFVNFNYCTGILGSQSITSGKHYWEVDVSKKTAWILGVCAGFQPDAMCNIEKNENYQPKYGYWVIGLEEGVKCSAFQDSSFHTPSVPFIVPLSVIICPDRVGVFLDYEACTVSFFNITNHGFLIYKFSHCSFSQPVFPYLNPRKCGVPMTLCSPSS [human TRIM5α, 7-codon deletion at 328] | 0.937 ± 0.4
MASGILVNVKEEVTCPICLELLTQPLSLDCGHSFCQACLTANHKKSMLDKGESSCPVCRISYQPENIRPNRHVANIVEKLREVKLSPEGQKVDHCARHGEKLLLFCQEDGKVICWLCERSQEHRGHHTFLTEEVAREYQVKLQAALEMLRQKQQEAEELEADIREEKASWKTQIQYDKTNVLADFEQLRDILDWEESNELQNLEKEEEDILKSLTNSETEMVQQTQSLRELISDLEHRLQGSVMELLQGVDGVIKRTENVTLKKPETFPKNQRRVFRAPDLKGMLEVFRELTDVRRYWVDVTVAPNNISCAVISEDKRQVSSPKPQIIYGARQTFVNFNYCTGILGSQSITSGKHYWEVDVSKKTAWILGVCAGFQPDAMCNIEKNENYQPKYGYWVIGLEEGVKCSAFQDSSFHTPSVPFIVPLSVIICPDRVGVFLDYEACTVSFFNITNHGFLIYKFSHCSFSQPVFPYLNPRKCGVPMTLCSPSS [human TRIM5α, 4-codon deletion at 333] | 1.22 ± 0.15
MASGILVNVKEEVTCPICLELLTQPLSLDCGHSFCQACLTANHKKSMLDKGESSCPVCRISYQPENIRPNRHVANIVEKLREVKLSPEGQKVDHCARHGEKLLLFCQEDGKVICWLCERSQEHRGHHTFLTEEVAREYQVKLQAALEMLRQKQQEAEELEADIREEKASWKTQIQYDKTNVLADFEQLRDILDWEESNELQNLEKEEEDILKSLTNSETEMVQQTQSLRELISDLEHRLQGSVMELLQGVDGVIKRTENVTLKKPETFPKNQRRVFRAPDLKGMLEVFRELTDVRRYWVDVTVAPNNISCAVISEDKRQVSSPKPQIIYGARGTRYQTFVNFNYLGSQSITSGKHYWEVDVSKKTAWILGVCAGFQPDAMCNIEKNENYQPKYGYWVIGLEEGVKCSAFQDSSFHTPSVPFIVPLSVIICPDRVGVFLDYEACTVSFFNITNHGFLIYKFSHCSFSQPVFPYLNPRKCGVPMTLCSPSS [human TRIM5α, 4-codon deletion at 345] | 1.57 ± 1.6
MASGILVNVKEEVTCPICLELLTQPLSLDCGHSFCQACLTANHKKSMLDKGESSCPVCRISYQPENIRPNRHVANIVEKLREVKLSPEGQKVDHCARHGEKLLLFCQEDGKVICWLCERSQEHRGHHTFLTEEVAREYQVKLQAALEMLRQKQQEAEELEADIREEKASWKTQIQYDKTNVLADFEQLRDILDWEESNELQNLEKEEEDILKSLTNSETEMVQQTQSLRELISDLEHRLQGSVMELLQGVDGVIKRTENVTLKKPETFPKNQRRVFRAPDLKGMLEVFRELTDVRRYWVDVTVAPNNISCAVISEDKRQVSSPKPQIIYGAFVNFNYCTGILGSQSITSGKHYWEVDVSKKTAWILGVCAGFQPDAMCNIEKNENYQPKYGYWVIGLEEGVKCSAFQDSSFHTPSVPFIVPLSVIICPDRVGVFLDYEACTVSFFNITNHGFLIYKFSHCSFSQPVFPYLNPRKCGVPMTLCSPSS [human TRIM5α, 7-codon deletion at 332] | 0.739 ± 0.86
MASGILVNVKEEVTCPICLELLTQPLSLDCGHSFCQACLTANHKKSMLDKGESSCPVCRISYQPENIRPNRHVANIVEKLREVKLSPEGQKVDHCARHGEKLLLFCQEDGKVICWLCERSQEHRGHHTFLTEEVAREYQVKLQAALEMLRQKQQEAEELEADIREEKASWKTQIQYDKTNVLADFEQLRDILDWEESNELQNLEKEEEDILKSLTNSETEMVQQTQSLRELISDLEHRLQGSVMELLQGVDGVIKRTENVTLKKPETFPKNQRRVFRAPDLKGMLEVFRELTDVRRYWVDVTVAPNNISCAVISEDKRQVSSPKPQIIYGARGTRGARGTRYQTFVNFNYCTGILGSQSITSGKHYWEVDVSKKTAWILGVCAGFQPDAMCNIEKNENYQPKYGYWVIGLEEGVKCSAFQDSSFHTPSVPFIVPLSVIICPDRVGVFLDYEACTVSFFNITNHGFLIYKFSHCSFSQPVFPYLNPRKCGVPMTLCSPSS [human TRIM5α, 6-codon duplication at 330] | 10.5 ± 6.4
MASGILVNVKEEVTCPICLELLTQPLSLDCGHSFCQACLTANHKKSMLDKGESSCPVCRISYQPENIRPNRHVANIVEKLREVKLSPEGQKVDHCARHGEKLLLFCQEDGKVICWLCERSQEHRGHHTFLTEEVAREYQVKLQAALEMLRQKQQEAEELEADIREEKASWKTQIQYDKTNVLADFEQLRDILDWEESNELQNLEKEEEDILKSLTNSETEMVQQTQSLRELISDLEHRLQGSVMELLQGVDGVIKRTENVTLKKPETFPKNQRRVFRAPDLKGMLEVFRELTDVRRYWVDVTVAPNNISCAVISEDKRQVSSPKARGTRYQTFVNFNYCTGILGSQSITSGKHYWEVDVSKKTAWILGVCAGFQPDAMCNIEKNENYQPKYGYWVIGLEEGVKCSAFQDSSFHTPSVPFIVPLSVIICPDRVGVFLDYEACTVSFFNITNHGFLIYKFSHCSFSQPVFPYLNPRKCGVPMTLCSPSS [human TRIM5α, 6-codon deletion at 325] | 0.983 ± 0.048
MASGILVNVKEEVTCPICLELLTQPLSLDCGHSFCQACLTANHKKSMLDKGESSCPVCRISYQPENIRPNRHVANIVEKLREVKLSPEGQKVDHCARHGEKLLLFCQEDGKVICWLCERSQEHRGHHTFLTEEVAREYQVKLQAALEMLRQKQQEAEELEADIREEKASWKTQIQYDKTNVLADFEQLRDILDWEESNELQNLEKEEEDILKSLTNSETEMVQQTQSLRELISDLEHRLQGSVMELLQGVDGVIKRTENVTLKKPETFPKNQRRVFRAPDLKGMLEVFRELTDVRRYWVDVTVAPNNISCAVISEDKRQVSSPKPQIIYGARGTARGTRYQTFVNFNYCTGILGSQSITSGKHYWEVDVSKKTAWILGVCAGFQPDAMCNIEKNENYQPKYGYWVIGLEEGVKCSAFQDSSFHTPSVPFIVPLSVIICPDRVGVFLDYEACTVSFFNITNHGFLIYKFSHCSFSQPVFPYLNPRKCGVPMTLCSPSS [human TRIM5α, 4-codon duplication at 331] | 0.468 ± 0.43
